Measured values reported in publication PMC4336329 (PLoS ONE, 2015).
Among all 310,000 compounds or so, about 2,200 (0.71%) showed an effect of 50% or more. The effect is printed as a negative number. This is one part of the list.

biological target: human ether-à-go-go-related gene (hERG) potassium channel (human, UniProt Q12809); test: primary screen, population patch clamp on CHO cells stably expressing hERG
Sequence (Q12809 whole entry, looked up): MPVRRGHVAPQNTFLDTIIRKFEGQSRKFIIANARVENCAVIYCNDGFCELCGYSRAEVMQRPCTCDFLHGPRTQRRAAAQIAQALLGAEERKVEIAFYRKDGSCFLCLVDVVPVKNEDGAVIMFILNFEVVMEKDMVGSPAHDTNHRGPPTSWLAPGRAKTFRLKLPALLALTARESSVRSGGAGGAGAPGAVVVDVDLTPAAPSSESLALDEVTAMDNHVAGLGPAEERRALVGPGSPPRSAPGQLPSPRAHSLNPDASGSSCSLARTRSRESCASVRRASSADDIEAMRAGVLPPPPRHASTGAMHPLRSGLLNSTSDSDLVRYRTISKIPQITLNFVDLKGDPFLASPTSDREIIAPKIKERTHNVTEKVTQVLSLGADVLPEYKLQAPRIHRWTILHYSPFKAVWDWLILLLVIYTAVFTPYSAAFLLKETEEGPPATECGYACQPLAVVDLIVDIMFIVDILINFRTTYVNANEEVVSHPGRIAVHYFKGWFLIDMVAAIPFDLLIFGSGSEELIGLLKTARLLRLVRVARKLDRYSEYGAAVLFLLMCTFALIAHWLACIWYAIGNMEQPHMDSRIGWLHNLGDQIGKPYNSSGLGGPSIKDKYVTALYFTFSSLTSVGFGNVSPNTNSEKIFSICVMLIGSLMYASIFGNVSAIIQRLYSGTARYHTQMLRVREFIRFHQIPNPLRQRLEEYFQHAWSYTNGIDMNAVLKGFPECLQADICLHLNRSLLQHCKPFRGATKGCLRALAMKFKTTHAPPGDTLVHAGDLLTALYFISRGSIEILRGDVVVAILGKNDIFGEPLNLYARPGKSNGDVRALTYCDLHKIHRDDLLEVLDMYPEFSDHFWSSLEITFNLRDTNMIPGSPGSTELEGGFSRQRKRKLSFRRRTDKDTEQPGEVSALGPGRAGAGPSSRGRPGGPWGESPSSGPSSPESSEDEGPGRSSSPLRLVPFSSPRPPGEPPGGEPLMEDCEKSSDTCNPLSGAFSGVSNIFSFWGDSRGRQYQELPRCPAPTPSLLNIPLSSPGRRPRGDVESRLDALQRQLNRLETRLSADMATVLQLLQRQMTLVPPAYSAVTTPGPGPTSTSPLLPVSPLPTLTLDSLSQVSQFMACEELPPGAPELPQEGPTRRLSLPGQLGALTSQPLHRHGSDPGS

Row | SMILES | hERG current change (%, negative = inhibition) at 1uM [%]
1 | COc1cccc(SCc2noc(C(=O)NC(C)C)c2C(=O)NC(C)C)c1 | 15.1
2 | O=C(O)c1ccc(S(=O)(=O)NCc2ccc3c(c2)OCO3)cc1 | 11.3
3 | CC(C)c1nc2cc(C(=O)NC(C)c3cnn(C)c3)ccc2o1 (stereo not shown) | 6.24
4 | Cc1cccc(C)c1NC(=O)CNC(=O)C1CCCN(C(=O)c2ccc(Cl)cc2)C1 (stereo not shown) | 14
5 | CCc1ccc(N(CC(=O)NC(C)(C)C)C(=O)CNC(=O)c2cccs2)cc1 | 6.98
6 | CCN1C2OC3OC4C(OC3OC2N(CC)S1(=O)=O)N(CC)S(=O)(=O)N4CC (stereo not shown) | 10.2
7 | O=C(O)CCn1c(=S)n(CCC(=O)O)c2ccccc21 | 6.37
8 | CCC(C)NC(=O)CSc1nc2cc(S(=O)(=O)N3CCOCC3)ccc2n1CC (stereo not shown) | 12.4
9 | CCCCOC(=O)C1CCC[C@@H](C)N1.Cl (stereo partly shown) | 2.38
10 | Cc1[nH]c(=S)sc1Cc1ccc(F)cc1 | 11.4
11 | COc1cccc(/C=N/N2CCN(c3ccc(Cl)cc3)CC2)c1OC | 11.7
12 | CCN(CC)C(=O)CSc1nc2sc3c(c2c(=O)n1CCOC)CCC3 | 6.09
13 | Cc1nccn1CCC(=O)Nc1ccc(Cl)cc1 | 2.98
14 | CN(C)CCCNC(=O)N1c2ccccc2Sc2ccccc21 | 11.1
15 | O=C(NCc1ccc2c(c1)OCO2)C12CC3CC(CC(C3)C1)C2 | -0.706
16 | CS(=O)(=O)N(CC(=O)Nc1ccc(CC#N)cc1)c1ccc(C23CC4CC(CC(C4)C2)C3)cc1 | 5.2
17 | Cc1ccc(N2CC(C(=O)Nc3nnc(SCCN4CCOCC4)s3)CC2=O)cc1C (stereo not shown) | 13.1
18 | CN(C)Cc1nc2ccccc2c(=O)n1Cc1nc(-c2cccc([N+](=O)[O-])c2)cs1 | -4.23
19 | CCOC(=O)N1CCN(C(=O)c2ccc3nc(N4CCCCC4)sc3c2)CC1 | 8.47
20 | O=C(Cc1cccs1)NNC(=O)c1ccccc1Cl | 4.95

Row | SMILES | hERG current change (%, negative = inhibition) at 1uM [%]
21 | CCOc1cc(C2C(C(=O)c3ccco3)=C(O)C(=O)N2CCc2ccccc2)ccc1O (stereo not shown) | 8.56
22 | Nc1nc(F)nc2c1ncn2[C@@H]1O[C@H](CO)[C@@H](O)[C@H]1O | 20.3
23 | CCOC(=O)NN1C(=O)c2ccccc2NC1c1ccc(N(C)C)cc1 (stereo not shown) | 7.21
24 | CC(/C=N/N1CCN(c2ccc(C)cc2)CC1)=C\c1ccccc1 | 6.8
25 | O=C(NCc1ccccc1Cl)c1cnn2cccnc12 | 5.26
26 | COc1ccc(CCC(=O)NCCOc2ccc(Cl)cc2)cc1 | 0.875
27 | O=C(CCCc1nc(-c2ccccc2Cl)no1)N1CCOCC1 | 12.3
28 | Cc1ccc(S(=O)(=O)ON2C(=O)c3ccccc3C2=O)c(C)c1 | -2.72
29 | COc1ccc(Cc2nc3ccccc3n2CC(=O)N/N=C/c2ccc(O)cc2)cc1OC | -3.24
30 | Cc1cc(OCC(=O)NN2C(=O)c3ccccc3C2=O)ccc1Cl | 9.91
31 | CCc1noc(C)c1C(=O)N1CCN(S(=O)(=O)c2cc(C)ccc2C)CC1 | 5.4
32 | COc1ccc(C(C(=O)NCc2ccccc2)N(Cc2cccs2)C(=O)c2cnccn2)cc1 (stereo not shown) | 4.83
33 | CC1CC(C)CN(CCCNS(=O)(=O)c2ccc3c(c2)oc(=O)n3C)C1 (stereo not shown) | -2.42
34 | COC(=O)C1C(=O)C2=C(CC1C)NC(=O)CC2c1cccc(C)c1 (stereo not shown) | -4.59
35 | Cc1cc(C)c(Cn2c(C(=O)O)c(C=O)c3ccccc32)c(C)c1 | 2.18
36 | S=C(NCCc1c[nH]c2ccccc12)NC1CCCC1 | 10.4
37 | Cn1cc(Br)c(-c2cccc(NC(=O)CC(C)(C)CC(=O)O)c2)n1 | 11.1
38 | O=C(NCc1ccc(F)cc1)Nc1ccc(Cl)cc1 | 1.34
39 | CC(=O)c1cc2c(=O)c3ccccc3oc2nc1C | 7.98
40 | COc1ccc(-c2cc(CCCC(=O)NCCc3ccc(OC)cc3OC)no2)cc1 | 7.1

Row | SMILES | hERG current change (%, negative = inhibition) at 1uM [%]
41 | COc1cc(SC)ccc1C(=O)N1CCN(c2ccc(O)cc2)CC1 | 4.82
42 | Cc1noc(C)c1S(=O)(=O)N(CC(=O)N1CCc2ccccc21)c1ccc(C(C)C)cc1 | 12.6
43 | Cc1cccc(-c2nc3ccccc3c(=O)n2NC(=S)N(C)C)c1 | 0.804
44 | COc1ccccc1N1CCN(C(=O)c2ccc(Cn3c(=S)[nH]c4cc5c(cc4c3=O)OCO5)cc2)CC1 | 11.7
45 | CCOC(=O)c1[nH]c(C)c(C(=O)N2CCN(c3ccccc3OC)CC2)c1C | 9.45
46 | O=C(CN1C(=O)NC2(CCCC2)C1=O)Nc1ccc(F)c([N+](=O)[O-])c1 | 7.95
47 | Cc1cc(=O)oc2cc(O)c(N=Nc3ccccc3)cc12 | 13.6
48 | Cc1nc2ccccc2n1/N=C/c1cccnc1 | 3.21
49 | CCNC(=O)/C(=C/c1ccc2c(c1)OCO2)NC(=O)c1ccc(Br)cc1 | -30.7
50 | CC1=Nc2ccc3ccccc3c2C1(C)C | 6.85
51 | Cc1cc(C)cc(OCC(=O)NCC2CCCO2)c1 (stereo not shown) | -4.91
52 | CC1=C/C(=C\c2ccc3c(c2)OCO3)C(=O)S1 | 7.42
53 | CCCOc1ccccc1C(=O)N(Cc1cccs1)C1CCS(=O)(=O)C1 (stereo not shown) | 2.85
54 | CCN(CC)CCOC(=O)C1c2ccccc2Oc2ccccc21.Cl | -0.841
55 | Cc1ccc(C(=O)Nc2nc(C)c(C)s2)o1 | 4.02
56 | Nc1nnc(CSCc2ccc(Cl)cc2)s1 | 2.77
57 | c1cc(CCN2CCCC2)ccn1 | 4.25
58 | CCOC(=O)C(=CN(CCc1ccccc1)CC(=O)OC)C(=O)OCC | 7.6
